Holding throughout (assay): co-IP; F9 L32T2 cells transiently co-transfected with HA-Cldn6 constructs and SFK-FLAG vectors; whole cell extracts, Immunoprecipitation Kit Protein G; mouse IgG as negative control; immunoblot
Test [1] addresses T1, HA-Cldn6Δ1/2C (mouse CLDN6, AA 1-201) (mouse) (UniProt Q9Z262).
T1 sequence: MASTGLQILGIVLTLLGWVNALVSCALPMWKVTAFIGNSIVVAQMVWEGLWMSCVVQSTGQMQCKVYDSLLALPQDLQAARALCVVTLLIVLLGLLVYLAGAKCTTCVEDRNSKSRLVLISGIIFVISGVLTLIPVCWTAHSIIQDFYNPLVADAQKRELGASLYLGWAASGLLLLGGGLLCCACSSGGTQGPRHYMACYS

Amino acid sequences for entries named in this document (tags omitted).
UniProt P16277: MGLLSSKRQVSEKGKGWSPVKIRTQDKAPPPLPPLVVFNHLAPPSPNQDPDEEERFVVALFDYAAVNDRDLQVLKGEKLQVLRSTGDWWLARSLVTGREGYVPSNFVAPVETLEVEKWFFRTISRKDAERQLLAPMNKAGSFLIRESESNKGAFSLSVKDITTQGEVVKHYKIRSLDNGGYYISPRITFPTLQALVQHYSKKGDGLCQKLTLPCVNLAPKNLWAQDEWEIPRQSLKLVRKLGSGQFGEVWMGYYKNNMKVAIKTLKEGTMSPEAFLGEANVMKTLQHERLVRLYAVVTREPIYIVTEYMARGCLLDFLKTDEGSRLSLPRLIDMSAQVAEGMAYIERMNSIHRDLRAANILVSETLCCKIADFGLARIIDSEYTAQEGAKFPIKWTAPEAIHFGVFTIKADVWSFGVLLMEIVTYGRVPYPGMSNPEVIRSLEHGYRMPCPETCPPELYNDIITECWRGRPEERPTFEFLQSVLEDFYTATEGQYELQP
UniProt P08103: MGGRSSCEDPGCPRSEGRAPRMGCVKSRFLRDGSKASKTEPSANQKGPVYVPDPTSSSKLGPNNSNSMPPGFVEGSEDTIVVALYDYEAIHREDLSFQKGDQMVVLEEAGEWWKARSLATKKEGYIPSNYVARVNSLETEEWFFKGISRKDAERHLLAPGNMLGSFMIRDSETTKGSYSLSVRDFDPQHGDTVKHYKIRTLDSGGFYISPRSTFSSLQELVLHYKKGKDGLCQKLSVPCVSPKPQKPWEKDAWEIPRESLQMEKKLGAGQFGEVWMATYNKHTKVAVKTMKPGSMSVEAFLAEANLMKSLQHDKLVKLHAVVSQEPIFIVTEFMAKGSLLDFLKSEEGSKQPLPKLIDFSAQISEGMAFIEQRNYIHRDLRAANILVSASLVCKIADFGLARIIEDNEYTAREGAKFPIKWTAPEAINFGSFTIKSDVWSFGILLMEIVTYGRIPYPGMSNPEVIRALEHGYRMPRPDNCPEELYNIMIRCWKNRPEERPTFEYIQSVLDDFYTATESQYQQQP

Test [2] concerns the target T2, HA-Cldn6 (mouse CLDN6, full length, AA 1-219) (mouse) (UniProt Q9Z262).
T2 sequence: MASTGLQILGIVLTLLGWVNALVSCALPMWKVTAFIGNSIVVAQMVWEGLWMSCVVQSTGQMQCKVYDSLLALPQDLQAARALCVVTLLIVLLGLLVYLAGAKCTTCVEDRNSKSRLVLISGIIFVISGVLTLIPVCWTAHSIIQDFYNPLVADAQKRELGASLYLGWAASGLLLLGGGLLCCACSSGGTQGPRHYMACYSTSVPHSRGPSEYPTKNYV

In test [3] the target is T3, HA-Cldn6ΔC (mouse CLDN6, AA 1-183) (mouse) (UniProt Q9Z262).
T3 sequence: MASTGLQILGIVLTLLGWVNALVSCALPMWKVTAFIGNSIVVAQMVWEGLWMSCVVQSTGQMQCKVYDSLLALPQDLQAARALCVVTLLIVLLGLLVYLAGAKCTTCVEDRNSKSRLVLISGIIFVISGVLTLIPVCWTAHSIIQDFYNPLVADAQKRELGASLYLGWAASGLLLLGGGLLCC

Results are given in words; binding and its absence hold for the method and conditions named. In cells and extracts the contact can be indirect. Some binding calls cover weakened binding; strength is not graded here. Sequences can lack the tags named with a protein.

As for “Blk-FLAG (mouse BLK) (from UniProt P16277 1-499) (enzyme)”, the binding entry in test [1] is on record as “binds”; in test [2] it was “binds”; in test [3], “no binding”.
Consider “Fgr-FLAG (mouse FGR) (from UniProt P14234 1-517) (enzyme)”, for which, in test [2], the binding result is reported as “no binding”.
Same read-out and setting: as for “Hck-FLAG (mouse HCK) (from UniProt P08103 1-524) (enzyme)”, the entry is “no binding”.
